The other results are listed elsewhere or left out.

The chains are these.
B1: chr14:63888807:63888808:-_ENSG00000154001_ENST00000337537|hu_mus|motif|central (ssRNA)
RNA: GGGAGUUCUACAGUCCGACGAUCUUCAUUGCUGUCACUAGGAGGGAGAGUUCUGAAUAUAUUGCAAGAUACCAUUCGGACGGCUUCAGGGUAAGUCUGCUCUGUCAGACAGCCUCUGCUUAUUGUAAUGUAGUCCACCAGUUCCAACAGAGGAUUGAGCAUCA
B2: chr14:89307221:89307222:+_ENSG00000165533_ENST00000346301|hu_mus|FALSE|FALSE (ssRNA)
RNA: GGGAGUUCUACAGUCCGACGAUCUCCUGUUUGGUUAGUGCCAGGGAGCUUCAAAGAUGUGCCAGGGCGUGGGACCUGAGCAAUAGCAUUUUCAUCCAGGAUCAUUUCAGCAAUUCCUUCCUGGUCCACAUCAAUUUCAUCUAUCAACAGAGGAUUGAGCAUCA
B3: 41771383_41772518_1973_3pUTR_ENSG00000137815_ENST00000389629|human|control|control (ssRNA)
RNA: GGGAGUUCUACAGUCCGACGAUCCUGGGAACUUGUAAGUCAAUCUUCACAUCAAAAUCGUGUACUUUGAACAGAUCUUCUGAGAGGUCACUGGCUGACUUAGAAUUCAAAUCUUUAUCUUUGCCUUGACCCUUGCUCAUUUCCCAACAGAGGAUUGAGCAUCA
B4: chr7:149068622:149068623:-_ENSMUSG00000025139_ENSMUST00000001950|mus_hu|mus_mus_mus_hu_False|38_78 (ssRNA)
RNA: GGGAGUUCUACAGUCCGACGAUCGUGAGGCCUCUGAGUGUGGCUUGUGGUCUGUCCUGUCUGCAGUUUGUUAAUAUCACGGAACAUACCAUCUAGAGAGGUUCUGCCCCGCCUGACACCUUCAUUCCCAAUGGAGAAGAAAUCCAACAGAGGAUUGAGCAUCA
B5: chr10:1038518:1038519:+_ENSG00000107937_ENST00000545048|hu_mus|FALSE|FALSE (ssRNA)
RNA: GGGAGUUCUACAGUCCGACGAUCCAGUCUGUCAUGGUAAUUCUGUUGAGUAAAUUUGACUUUUCUCAUAUAAAAAUGUCGAAUCCGAUGAAUUUGAUAAUGUUUAUGAAUAACCGUUGGAGUCUUUCGUUGAGUCUUGGAUAACAACAGAGGAUUGAGCAUCA
B6: chrX:140365796:140365797:-_ENSMUSG00000031285_ENSMUST00000033642|mus_mus|mus_mus_mus_hu_False|78_78 (ssRNA)
RNA: GGGAGUUCUACAGUCCGACGAUCCUUCUCAUUACUCAGUGCCUGCAAGGUUCUGGUUCUGUAGAAGCUACAGUGGGCGCUGUGAGUGGGGCUAGGCAACCCAUUCAUCCGGGAGCCUCGCAUGUUCCUGGAUGUCUUAUCUCUCAACAGAGGAUUGAGCAUCA
B7: 60895986_60898943_215_3pUTR_ENSMUSG00000021987_ENSMUST00000022563|mouse|control|control (ssRNA)
RNA: GGGAGUUCUACAGUCCGACGAUCAGAGGCAAUAUGGUGGUGUAGUAUCCAGGUUUCUUUUUGCUGAGCGUCAAUAAAUAAUAGGUGUGUGGCCGUAAGAUACAGUGUUCCUGUCAGUGACUUGUUGUUGGUACUAAACCGGUCCAACAGAGGAUUGAGCAUCA
B8: chr7:108212191:108212192:+_ENSG00000128590_ENST00000249356|hu_hu|motif|central (ssRNA)
RNA: GGGAGUUCUACAGUCCGACGAUCGUUAUCAUUAAAAUGCAGAUUGCAAAGAUGAAAAUUGACUGGGGAGUAGCCAUUUCGGAUAUCCUGCACCCUCCGACUACUGCUGCUCCUCCACAGAGCUGAGGCGCUGGCGACCCUGACCAACAGAGGAUUGAGCAUCA
B9: chr10:80642667:80642668:+_ENSMUSG00000034994_ENSMUST00000047864|mus_hu|FALSE|FALSE (ssRNA)
RNA: GGGAGUUCUACAGUCCGACGAUCGACUCGUCCAAAGGCGUAGAACCGACCUUUGUCGGAGGUUGGCACCAUUUUGGAAAUAUACAUCAUAAGAGGGCCUUUGGGGUCACAGCUUUUAAUGCCCAUGGCAGCCUCGUCGUCCGGCAACAGAGGAUUGAGCAUCA
B10: chr7:65705844:65705845:+_ENSG00000169902_ENST00000304842|hu_mus|hu_hu_hu_mus_False|8_8 (ssRNA)
RNA: GGGAGUUCUACAGUCCGACGAUCAAACGGAUCUUUGUUACAUAAAUAAGGUGCCGGCUCCCCAUGUUUAACAAUGACCUCCAGAAGGAAGGCUUGCAUGGCAGAAUCUAGCACUUCAUCUGUGACACCAGCCUCAUCCAAGCGCAACAGAGGAUUGAGCAUCA
B11: chr6:38652254:38652255:-_ENSG00000124767_ENST00000373365|hu_hu|hu_hu_hu_mus_False|48_88 (ssRNA)
RNA: GGGAGUUCUACAGUCCGACGAUCCGAGAACUUCAUAGCAGGGAAGUCACAUUUUUGCAGGAGGGUCAGUCCAAGAACCCUCGUAUAAAAAUCCAGUGACUUCUUAGGAUCCUUAAUUCUUAGCAUCGUUUGCUGCAGUAGAAACAACAGAGGAUUGAGCAUCA
B12: chr4:76733432:76733433:+_ENSG00000138768_ENST00000264904|hu_hu|motif|central (ssRNA)
RNA: GGGAGUUCUACAGUCCGACGAUCGCCAAGAGCACCAAGAGAUCAUCUUGUUCUUUUUUAGAAUCUGUAAUUUCCAACUCGGGUUUGUCUUUCUCAGUUUGUAAAAUGGCAAUGGUACUAUUAGAUGAAUCCAGCUGCUCUUUACAACAGAGGAUUGAGCAUCA
B13: chr11:35622686:35622687:-_ENSMUSG00000018848_ENSMUST00000018992|mus_hu|motif|central (ssRNA)
RNA: GGGAGUUCUACAGUCCGACGAUCGAAAGCAGUUGCCAGCUCAUAUAUAUAAUCACAGAGAGUGUGGAGAAAUAAGUCAUCGGAAAUCUUUUGCAGAAUCUCAGGGAACCGUAAAAUGCACCGGCCUAGUUUCCAUUCCUUCUCCAACAGAGGAUUGAGCAUCA
B14: chr17:64801638:64801639:+_ENSG00000154229_ENST00000413366|hu_mus|hu_hu_hu_mus_False|28_108 (ssRNA)
RNA: GGGAGUUCUACAGUCCGACGAUCUAUAAAUACAUAUACAUAUGUACACAUAUAUAGUAAAACCCUAGUUAAACGUGUAAAGUAGCCAUUCAUUUUUAAAAUUACAUCUACAUUUAAAAAUUAAUAUAUCUGAUAGAGUGCCAGCAACAGAGGAUUGAGCAUCA

This assay addresses T1, UNK ZnF1-3 (human, UniProt Q9C0B0 31-174).
T1 sequence: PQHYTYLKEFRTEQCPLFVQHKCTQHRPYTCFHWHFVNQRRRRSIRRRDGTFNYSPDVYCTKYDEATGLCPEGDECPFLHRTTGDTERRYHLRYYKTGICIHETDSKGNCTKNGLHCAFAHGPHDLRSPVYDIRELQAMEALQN
The experiment in a line: nsRBNS (natural sequence RNA bind-n-seq); RBNS binding buffer (assumed for nsRBNS): 25 mM Tris pH 7.5, 150 mM KCl, 3 mM MgCl2, 0.01% Triton X-100, 500 ug/ml BSA, 20 U/ml SUPERase-In, 4 C; UNK is unkempt and MSI1 is Musashi-1; names of the RNAs are library labels; protein concentration not given here; high values mean tight binding.
Turning to B1, the binding signal came out at 1.06 enrichment R.

Molecule B2 gave a binding signal of 0.886 enrichment R.

Take B3: the binding signal turned out to be 0.655 enrichment R.

As to B4, the binding signal was 0.806 enrichment R.

In turn, B5 showed a binding signal of 0.535 enrichment R.

As for B6, the binding signal was 0.603 enrichment R.

As to B7, the binding signal is 1.12 enrichment R.

Take B8: the binding signal was 0.989 enrichment R.

With B9, the binding signal stood at 1.92 enrichment R.

Consider B10, for which the binding signal is 0.623 enrichment R.

As to B11, the binding signal was determined as 0.691 enrichment R.

In the case of B12, the binding signal is 1.17 enrichment R.

On to B13, for which the binding signal worked out at 1.44 enrichment R.

B14 came in with a binding signal of 1.96 enrichment R.
